# Reference: the supplement of paper PMC12217912
# Some of the results follow. Sequences were assembled here from the parent chain. Inactive controls read about 0.05.
# B1: TEV protease; numbered along this chain (parent)
# chain: MGESLFKGPRDYNPISSSICHLTNESDGHTTSLYGIGFGPFIITNKHLFRRNNGTLVVQSLHGVFKVKDTTTLQQHLVDGRDMIIIRMPKDFPPFPQKLKFREPQREERICLVTTNFQTKSMSSMVSDTSCTFPSGDGIFWKHWIQTKDGQCGSPLVSTRDGFIVGIHSASNFTNTNNYFTSVPKNFMELLTNQEAQQWVSGWRLNADSVLWGGHKVFMVKPEEPFQPVKEATQL
# Variants of: B1
# Experiment: raw area under fraction-flipped curve 0-4 h after induction (AUC4h, not background-subtracted), DNA-recorder readout of cleavage of the substrate (dimensionless); higher = more cleavage of the substrate by the protease variant
# Settings: temperature: 34 °C; time window: 0-4 h after rhamnose induction
# Protocol: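 In vivo DNA recorder in E. coli TOP10(DE3) ΔrhaA at 34 °C. Each TEVp single-site mutant (parent TEVp 0) is paired with a single-site variant of the 7-mer TEVs (canonical ENLYFQ|S). The substrate sits between flexible linkers in a Bxb1-sfGFP-TEVs-SsrA fusion, so cleavage stabilises Bxb1 and speeds flipping of a recombination array, read by NGS. The value is the raw area under the fraction-flipped curve over 0-4 h after rhamnose induction (AUC4h), with ≥20 reads per time point. It is not background-subtracted; inactive controls average about 0.047.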
# 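Further: Bxb1 expression induced with 0.2% (w/v) L-rhamnose at OD600 near 0.5, cultures sampled hourly, flipped fraction per protease–substrate barcode pair counted by paired-end Illumina sequencing.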
Variant,area with substrate ENAYFQS,area with substrate ENDYFQS,area with substrate ENEYFQS,area with substrate ENFYFQS,area with substrate ENGYFQS,area with substrate ENQYFQS,area with substrate ENSYFQS,area with substrate ENCYFQS,area with substrate ENHYFQS,area with substrate ENIYFQS,area with substrate ENKYFQS,area with substrate ENMYFQS,area with substrate ENNYFQS,area with substrate ENPYFQS,area with substrate ENRYFQS,area with substrate ENTYFQS,area with substrate ENVYFQS,area with substrate ENWYFQS,area with substrate ENYYFQS
L5D,0.0691,0.0592,0.0627,0.0514,0.0534,0.0626,0.0528,–,–,–,–,–,–,–,–,–,–,–,–
D11E,0.0583,0.0565,0.0879,0.0595,–,0.0605,0.0694,0.0713,0.0628,0.127,0.0623,0.0781,0.0643,0.0698,0.0592,0.0727,0.0775,0.0499,0.0576
I19G,0.0603,0.0471,0.0547,0.078,0.0564,0.0558,0.0572,0.0504,0.0499,–,0.0539,0.0239,0.0513,0.0658,0.0443,–,0.0567,0.0038,–
H29F,0.0885,–,–,–,0.0605,0.0674,–,–,–,–,–,0.0822,–,–,–,0.074,0.0842,–,–
S18T,0.0585,–,0.0251,0.0611,0.0688,0.052,–,0.0492,–,0.084,–,0.0633,–,0.0796,0.0535,0.0571,–,0.0541,–
S18M,0.0692,0.0637,0.0771,0.0482,0.0579,0.0548,–,0.0687,–,0.121,–,–,–,–,0.0671,0.0694,0.0723,–,–
S18N,0.0878,0.064,0.0638,0.0565,0.0665,0.0784,0.0594,0.0675,0.0557,–,–,–,–,–,0.0654,0.0593,0.0819,0.0486,–
N13C,0.0654,0.0659,0.0723,0.0485,0.0598,0.0608,0.0713,0.0594,0.066,0.114,0.0498,0.0717,0.0538,0.0602,0.0529,0.0713,0.0823,0,0.0675
N13Q,0.0545,0.0566,0.0631,0.0593,0.061,0.0551,0.055,0.0715,0.0597,0.116,–,0.0944,0.058,0.0674,–,–,0.0919,0.0629,0.0563
E3N,0.0713,–,0.0796,0.0636,–,0.0661,0.144,0.0452,0.0994,–,–,–,–,–,–,0.0576,0.0863,–,–
S16K,0.0521,0.0655,0.0457,0.0687,0.0544,0.0616,0.0822,0.0763,0.0533,–,–,0.0743,0.049,–,–,0.0595,–,–,0.0408
S16F,0.07,0.0609,0.0597,0.0701,–,0.055,0.0626,0.0625,–,0.121,0.0685,0.0736,0.0697,0.0529,0.0564,0.0591,–,0.0071,0.0746
Y12I,0.0462,0.0596,0.0655,–,0.0817,0.0545,0.0634,0.066,0.0627,0.0982,0.0622,0.0904,0.0511,0.0595,0.0529,0.0596,0.0702,0.0688,0.0605
Y12Q,0.035,0.062,0.0601,0.0519,–,0.0627,0.0596,0.0587,0.0719,0.127,0.09,0.084,0.0633,0.0702,0.0552,0.0754,0.0828,–,–
Y12V,0.0598,0.0649,0.0651,–,0.0584,0.0612,0.061,0.0566,–,0.0935,0.0569,–,0.0612,–,0.0532,0.0668,0.083,–,0.0696
Y12A,0.0568,0.0664,0.0547,0.0595,0.0796,0.0661,0.0746,0.0621,0.0909,0.129,0.0687,0.0718,0.0628,–,0.0388,0.0568,0.0693,0.038,0.0682
T31Q,0.0581,0.0852,–,0.0657,0.0566,0.0808,0.0652,0.0724,0.067,–,–,0.0555,–,–,–,0.0624,0.0679,0.0563,–
S17G,0.0652,0.0596,0.0539,0.0461,0.0515,0.0594,0.0546,0.0884,0.0576,0.113,–,0.0661,0.0562,0.0537,0.0535,0.0691,0.0765,–,0.0562
S17C,0.101,0.0474,0.0703,0.0601,0.0977,0.0597,0.0673,0.0651,0.0396,0.136,0.0627,0.0536,0.0713,0.0562,0.0556,0.0694,0.0681,0.0568,–
I15N,0.0555,0.055,0.0665,0.0726,0.0652,0.0204,0.0464,0.0485,0.0538,0.0764,0.0609,0.0719,0.0555,–,–,0.0475,0.0672,–,0.0527
I15L,0.0422,0.0575,0.0629,0.0677,0.0753,0.0577,0.0684,0.0577,0.0607,0.0777,0.0588,0.0846,0.0395,0.0633,0.0616,0.0681,0.0762,–,0.0651
I15F,0.0605,0.0574,0.0623,0.0603,0.0613,0.0595,0.0625,0.0646,–,0.0946,0.0691,0.0883,0.0406,0.0463,–,0.0641,0.0729,–,0.0496
H21E,0.056,0.0577,0.0628,0.0683,0.0549,0.0629,0.0624,0.0807,0.0614,0.0493,0.0618,0.0772,0.0474,0.0686,0.0565,0.0589,0.068,0.0465,0.0665
H21T,0.0613,0.0683,0.0536,0.0733,0.0665,0.0608,0.0589,0.068,0.0777,–,0.0545,0.0783,0.0464,0.0773,0.0575,0.0663,0.0627,–,0.0672
